According to the supplement of paper PMC12009370:
The list shows a part of the results. Most values come without repeats; read them as rough.

Legend:
[1] = tested on: IMR-32; assay: drug sensitivity score (DSS), single drug with vehicle (DSS (score)); higher = more cytotoxic; extreme values may be limits of the assay; details: 72 h; co-treatment: vehicle (DMSO)
[2] = tested on: SK-N-AS; assay: as above; details: 72 h; co-treatment: vehicle (DMSO)
[3] = tested on: SK-N-AS; assay: drug sensitivity score (DSS) in combination with SL-176 (DSS (score)); higher = more cytotoxic; extreme values may be limits of the assay; details: 72 h; co-treatment: SL-176 11.2 uM (IC25 in IMR-32)
[4] = tested on: IMR-32; assay: as above; details: 72 h; co-treatment: SL-176 11.2 uM (IC25 in IMR-32)
[5] = tested on: SK-N-AS; assay: drug sensitivity score (DSS) in combination with GSK2830371 (DSS (score)); neuroblastoma lines; SL-176 and GSK2830371 are WIP1 inhibitors; higher = more cytotoxic; extreme values may be limits of the assay; details: 72 h; co-treatment: GSK2830371 at IC25 in IMR-32
[6] = tested on: IMR-32; assay: as above; details: 72 h; co-treatment: GSK2830371 at IC25 in IMR-32
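Throughout, for drug sensitivity score (DSS) in combination with GSK2830371: neuroblastoma cells in 384-well plates, each compound at five concentrations, luminescence read-out, DSS derived from fitted concentration-response curve combining IC50 with minimum and maximum inhibition.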
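Throughout, for drug sensitivity score (DSS) in combination with SL-176: cells in 384-well plates, luminescence read-out, each screening drug at five concentrations, DSS derived from the fitted concentration-response curve combining IC50 with minimum and maximum inhibition.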
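Throughout, for drug sensitivity score (DSS), single drug with vehicle: 384-well screen with five concentrations per compound and a luminescence read-out, DSS computed from the fitted dose-response curve combining IC50 with minimum and maximum inhibition.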

Row | Compound | drug sensitivity score [1] | drug sensitivity score [2] | drug sensitivity score [3] | drug sensitivity score [4] | drug sensitivity score [5] | drug sensitivity score [6]
1 | CCOc1ccccc1-n1c(C(C)N2CCN(C(=O)COc3ccc(Cl)cc3)CC2)nc2ccccc2c1=O (centres undefined) [Erastin] | 21.3 | 13.3 | 11 | 16.9 | 13.7 | 18.4
2 | CC1(C)C(C(=O)Nc2ccc(S(=O)(=O)c3ccc(NC(=O)C4C(C)(C)C4(C)C)cc3)cc2)C1(C)C | 0 | 3.8 | 4.2 | 2.7 | 4.1 | 0
3 | CCC1(c2ccc(N)cc2)CCC(=O)NC1=O (centres undefined) [Aminoglutethimide] | 0 | 0 | 0 | 2.1 | 0 | 0
4 | CC(O)(CS(=O)(=O)c1ccc(F)cc1)C(=O)Nc1ccc(C#N)c(C(F)(F)F)c1 (centres undefined) [Bicalutamide] | 2.5 | 0 | 0 | 0 | 0.4 | 0
5 | O=C(Nc1ccncc1)C(=O)c1cn(Cc2ccc(Cl)cc2)c2ccccc12 [Indibulin] | 22 | 22.6 | 21.3 | 27 | 21.3 | 27.6
6 | CC[C@@H](C(=O)[C@@H](C)[C@@H](O)[C@H](C)[C@@H]1O[C@@H]([C@@H](CC)C(=O)O)CC[C@@H]1C)[C@H]1O[C@]2(C=C[C@@H](O)[C@]3(CC[C@@](C)([C@H]4CC[C@](O)(CC)[C@H](C)O4)O3)O2)[C@H](C)C[C@@H]1C [Salinomycin] | 28.3 | 5.6 | 8.2 | 30.1 | 17.8 | 29.7
7 | Cc1sc2c(c1C)C(c1ccc(Cl)cc1)=N[C@@H](CC(=O)Nc1ccc(O)cc1)c1nnc(C)n1-2 [Birabresib] | 14.6 | 8.6 | 9.4 | 15.9 | 9.9 | 18.2
8 | CCNC(=O)C[C@@H]1N=C(c2ccc(Cl)cc2)c2cc(OC)ccc2-n2c(C)nnc21 [Molibresib] | 4.5 | 6.4 | 6.6 | 7.9 | 6.9 | 9.9
9 | COc1cc(C)[nH]c(=O)c1CNC(=O)c1c(C)n([C@H](C)C2CCOCC2)c2ccccc12 | 0 | 0 | 0 | 0 | 0 | 0
10 | CCC/C=C/C=C/C(=O)O[C@H]1/C(=C/C(=O)OC)C[C@H]2C[C@H]([C@@H](C)O)OC(=O)C[C@H](O)C[C@@H]3C[C@H](OC(C)=O)C(C)(C)[C@](O)(C[C@@H]4C/C(=C/C(=O)OC)C[C@H](/C=C/C(C)(C)[C@]1(O)O2)O4)O3 [Bryostatin 1] | 0 | 0 | 0 | 0 | 0 | 0
11 | N.N.[Cl][Pt][Cl] [Cisplatin] | 29.4 | 11.1 | 8.1 | 28.4 | 10.5 | 30.2
12 | CCc1c(C(=O)C(N)=O)c2c(OCC(=O)O)cccc2n1Cc1ccccc1 [Varespladib] | 0 | 0 | 1 | 0 | 0 | 0
13 | CN(C)c1cc2c(cc1Sc1nc3c(N)nccc3n1CCNCC(C)(C)C)OCO2 | 13.9 | 12.3 | 12.6 | 9.8 | 12.3 | 11.7
14 | COCC1(CO)C(=O)C2CCN1CC2 (centres undefined) | 0 | 0 | 0 | 0 | 0 | 0
15 | Clc1ccccc1C(c1ccccc1)(c1ccccc1)n1cccn1 | 0 | 0 | 0 | 0.5 | 0 | 0
16 | Cn1cc(C2=C(c3cn(C4CCN(Cc5ccccn5)CC4)c4ccccc34)C(=O)NC2=O)c2ccccc21 [Enzastaurin] | 0 | 1.1 | 2.6 | 7 | 2.2 | 0
17 | Cc1c(N)nc([C@H](CC(N)=O)NC[C@H](N)C(N)=O)nc1C(=O)N[C@H](C(=O)N[C@H](C)[C@@H](O)[C@H](C)C(=O)N[C@H](C(=O)NCCc1nc(-c2nc(C(=O)NCCC[S+](C)C)cs2)cs1)[C@@H](C)O)[C@@H](OC1OC(CO)C(O)C(O)C1OC1OC(CO)C(O)C(OC(N)=O)C1O)c1cnc[nH]1 (some centres undefined) [Bleomycin] | 13.3 | 3.3 | 2.8 | 11.6 | 4 | 16.8
18 | C=C1C[C@@H]2[C@H](CC[C@]3(C)C(=O)CC[C@@H]23)[C@@]2(C)C=CC(=O)C=C12 [Exemestane] | 0 | 0.4 | 0.8 | 0 | 0 | 0.8
19 | O=C(O)CNC(=O)c1c(O)c2ccccc2n(Cc2ccccc2)c1=O | 0 | 0 | 0 | 2.8 | 0 | 0
